Measured values reported in PubChem BioAssay AID1159614 (National Center for Advancing Translational Sciences (NCATS), 2016).
The campaign covered roughly 45,000 compounds. About 65 (0.1%) were called active. The call rests on the fitted dose curve; in most records, active means well fitted activation curve with a large enough effect; inconclusive means small, poorly fitted or top-dose-only effect; inactive means no such curve, though single readings can be large or run the other way. This is one part of the list.

Biological target: Galactocerebrosidase (Homo sapiens) (UniProt P54803)
Chain of UniProt P54803 (P54803 whole entry, looked up): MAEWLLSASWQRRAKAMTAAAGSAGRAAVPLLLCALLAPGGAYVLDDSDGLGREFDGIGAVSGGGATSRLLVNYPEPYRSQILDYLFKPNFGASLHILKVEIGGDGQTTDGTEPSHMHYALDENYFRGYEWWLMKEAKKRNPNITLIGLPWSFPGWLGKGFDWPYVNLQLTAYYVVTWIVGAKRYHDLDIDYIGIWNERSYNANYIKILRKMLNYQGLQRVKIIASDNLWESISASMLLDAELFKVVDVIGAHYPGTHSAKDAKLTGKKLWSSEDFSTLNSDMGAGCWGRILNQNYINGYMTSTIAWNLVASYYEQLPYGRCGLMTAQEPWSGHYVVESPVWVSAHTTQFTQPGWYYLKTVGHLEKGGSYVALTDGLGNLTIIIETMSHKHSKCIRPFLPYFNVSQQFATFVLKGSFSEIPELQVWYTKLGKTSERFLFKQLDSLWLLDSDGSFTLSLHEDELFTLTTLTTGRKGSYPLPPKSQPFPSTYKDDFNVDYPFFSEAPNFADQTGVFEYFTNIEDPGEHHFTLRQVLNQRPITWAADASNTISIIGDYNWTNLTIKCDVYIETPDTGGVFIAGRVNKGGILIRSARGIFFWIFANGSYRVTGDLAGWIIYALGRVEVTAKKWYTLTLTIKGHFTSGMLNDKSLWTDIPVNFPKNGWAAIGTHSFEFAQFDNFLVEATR
Experiment: A Novel Cell-Based Assay to Identify Small Molecules for B -Galactocerebrosidase; further: 0% is about no effect; nearly all actives have a fitted effect of over 65% in size
Settings: 145M-Twi-hGALC-G270D cells (Twitcher mouse brain line with human GALC G270D), HMU-beta-Gal fluorescence, 48 h; series mostly up to 57.5 µM; activation: at the top concentration
Procedure, shortened: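 Mutant human GALC (G270D), stably expressed in a Twitcher mouse brain cell line lacking endogenous GALC, is measured in live-treated cells via 6-hexadecanoylamino-4-methylumbelliferyl-β-galactoside hydrolysis (0.1 mM final, pH 5.2) with fluorescent detection.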

activation, inactive:
COc1ccc(N2CCN(Cc3nc4c(c(=O)[nH]c(=O)n4C)n3Cc3ccc(Cl)cc3)CC2)cc1 13.5%, Cc1cccc(-c2nc(SCC(=O)N3CCc4ccccc43)c3c(=O)n(C)c(=O)n(C)c3n2)c1 -8.41%, CCOC(=O)CNc1nc(Oc2ccc(=O)n(C)n2)nc(N(CC)CC)n1 -17.1%, CCOc1ccc(-n2c(SCC(=O)N3CCc4ccccc43)nc3c([nH]c4ccccc43)c2=O)cc1 -2.98%, Cc1cccc(-c2nnc(SCc3cc(=O)c4cccc(Cl)c4[nH]3)n2C)c1 -2.12%, COc1cccc2c1ncc1c(-c3ccc(C)cc3)nn(-c3cccc([N+](=O)[O-])c3)c12 4.41%, COc1ccc(OC)c(NC(=O)c2cc(-c3ccc(Cl)s3)nc3ccccc23)c1 -12.9%, Cc1ccc(C2CCN(C(=O)c3cnn(-c4cccc(Cl)c4)c3C3CCN(C(=O)OC(C)(C)C)CC3)C2)cc1 (configuration not stated) -16.1%, COc1ccc(NC(=O)N(CCC(C)C)C(C)c2cccs2)c(OC)c1 (configuration not stated) -16.8%, O=C(COc1ccccc1)NCc1ccc2c(c1)CCN2C(=O)c1ccc(Cl)cc1 -10.7%, Cc1cc(=O)[nH]c2nnc(SCC(=O)Nc3ccc(OC(F)(F)F)cc3)n12 -14.2%, COc1ccc(NC(=O)CSc2nc3c([nH]c4ccccc43)c(=O)n2-c2ccccc2)c(OC)c1 -11.2%, COCCNc1ncnc2c1c(-c1ccccc1)cn2-c1ccc(C)c(Cl)c1 -3.73%, O=C(NCc1ccco1)c1ccc2c(c1)N(Cc1ccccc1)C(=O)c1ccccc1S2(=O)=O -6.18%, NCc1nc2cccnc2n1Cc1ccccc1Cl -10.5%, COc1ccccc1CNC(=O)CCc1c(C)nn(-c2ccc(N3CCOCC3)nn2)c1C -7.91%, Cc1ccc(CNC(=O)c2oc3c(c2C)-c2nn(Cc4ccc(Cl)cc4)cc2CC3)cc1 -16.4%, CCN(CC)S(=O)(=O)c1ccc(NC(=O)NCc2noc3ccc(C)cc23)cc1 -24.1%, Cc1cc(S(=O)(=O)C(CNC(=O)c2ccc(OC(C)C)cc2)c2cccs2)ccc1F (configuration not stated) 5.1%, COc1ccc(-n2ncc3c(NC(C)(C)CO)ncnc32)cc1 -19.2%, CCOc1ccc(NC(=O)Cn2c3ncccc3c(=O)n2-c2ccc(CC)cc2)cc1 -21.6%, Cc1cc(N2CCN(c3ccccc3F)CC2)n2cnnc2n1 2.1%, COc1ccc(NC(=O)CCc2nc3cccnc3n2Cc2cccs2)c(OC)c1 -15.2%, CCOC(=O)c1ccc(NC(=O)Nc2cccc(OCc3cc(=O)n4ccc(C)cc4n3)c2)cc1 -8.72%, CCCCOc1ccc(NC(=O)CSc2ccc(C(=O)O)cn2)cc1 0.0872%, Cc1ccc(CN2C(=O)SC(Nc3ccccc3)C2=O)cc1 (configuration not stated) -4.61%, COc1cccc(CNC(=O)CCn2ccc3cc(S(=O)(=O)N4CCCC4)ccc32)c1 -7.12%, O=C(NCCn1cc(SCc2ccc(C(F)(F)F)cc2)c2ccccc21)c1ccccc1F -2.82%, O=C(NCc1ccc(F)cc1)c1ccc2c(c1)N(Cc1ccc(F)cc1Cl)C(=O)CS2 -2.97%, CCCSc1ncc(Cl)c(C(=O)Nc2ccc(OC)cc2OC)n1 -5.32%, COc1ccc(C2=C(C)C(=O)N(Cc3ccc(C(=O)NCc4ccccc4C)cc3)S2(=O)=O)cc1 2.68%, O=S(=O)(NCCc1ccc(Cl)cc1)c1ccc(N2CCCCS2(=O)=O)cc1 -12%, Cc1ccc(C2C=C(c3ccc(Cl)cc3)Nc3nc(NC(=O)CCC(=O)O)nn32)cc1 (configuration not stated) -5.24%, CCOc1ccc(NC(=O)CCn2c(-c3ccc(F)cc3)cc(C(C)=O)c2C)cc1 -10.3%, COc1ccc(NC(=O)Nc2nnc(SCC(=O)Nc3cccc(C)c3C)s2)cc1 -19.5%, CCn1cnc2c(=O)oc3ccc(S(=O)(=O)N4CCN(c5cc(C)ccc5C)CC4)cc3c21 -8.06%, CCC(C)Cn1c(COc2ccc(OC)cc2)nc2ccccc21 (configuration not stated) -14.3%, CCCOc1ccc(C(=O)Nc2cc3nn(-c4ccc(CC)cc4)nc3cc2C)cc1 -24.8%, O=C(CSc1nnc(-c2ccccc2)c(-c2ccccc2)n1)Nc1ccccc1Cl -6.18%, COc1ccccc1OCCCn1c(-c2ccc(Cl)cc2)nc2ccccc2c1=O -5.45%, CCOC(=O)CC(NC(=O)c1cc2cc(OC)ccc2oc1=O)c1ccc(OC)cc1 (configuration not stated) -4.94%, Cc1cccc(C(=O)Nc2nnc(S(=O)(=O)N3CCC(C)CC3)s2)c1 -18%, O=C(CCC(=O)N1CC2CCCN2c2ccccc21)NCc1ccccc1F (configuration not stated) -6.54%, CCOC(=O)Cc1c(C)nc2c(-c3ccc(OC)c(OC)c3)c(C)nn2c1C -15.5%, O=C(NCc1ccccc1)c1cccc(Nc2nc3ccccc3n3nnnc23)c1 -15.7%, Cc1cccc(OCC(=O)OCc2cc(=O)n3nc(C4CC4)sc3n2)c1 -6.63%, CCOC(=O)c1c(C)oc2ncnc(Nc3ccc(CC)cc3)c12 -14.2%, CC1CCN(C(=O)CN2CCSc3ccc(S(=O)(=O)N(C)C)cc32)CC1 -19.6%, O=C(C1CCN(S(=O)(=O)c2cccc3nonc23)CC1)N1CCN(c2ccc(F)cc2)CC1 -38.6%, CCOc1ccc(CNC(=O)CCS(=O)(=O)c2cc3c4c(c2)CCN4C(=O)CC3)cc1 -0.789%, CC(=O)c1ccc(NC(=O)C(Cc2ccccc2)NS(=O)(=O)c2ccc3c(c2)CCC(=O)N3)cc1 (configuration not stated) 2.51%, COc1ccc(/C=C/c2nc(-c3ccccc3O)n(-c3ccccc3)n2)cc1OC 0.794%, Cc1cc(C)cc(OC(=O)c2cc(-c3ccc4c(c3)OCCO4)on2)c1 -7.89%, CN(C)CCCN1c2ccccc2Sc2ccc(Cl)cc21 -6.71%, CCC(=O)N1CCc2cc(S(=O)(=O)NCCC(=O)NC(C)c3ccccc3)ccc21 (configuration not stated) -5.3%, Cc1c(C2=CCN(S(=O)(=O)c3ccc(Cl)cc3)CC2)c2ccccc2n1CC(=O)N1CCCC1 -23.4%, CCc1ccc2oc(C(=O)Nc3nc(-c4ccc(F)cc4)ns3)c(C)c2c1 -11.6%, COc1ccc(-c2cc(C(F)(F)F)n3nc(C(=O)OC(C)C)cc3n2)cc1 -5.71%, Cc1cc2c(n1-c1ccc(C(=O)NCCc3ccc(Cl)cc3)cc1)CCC(C)C2 (configuration not stated) -14.5%, COc1ccc(N(Cc2nnc3n2CCCCC3)C(=O)Nc2ccc(Cl)cc2)cc1Cl -5.85%, CCC1CCCCN1C(=O)CSc1n[nH]c(-c2ccccc2)n1 (configuration not stated) -13.6%, Cc1c(Cl)cccc1NC(=O)C(C)n1nc(C)c2c(C)n(-c3ccccc3)nc2c1=O (configuration not stated) -20.4%, Cc1cccc(OCC(=O)Nc2ccc(OCc3cc(=O)n4cc(C)ccc4n3)cc2)c1 -13.1%, CC(=O)Nc1ccc(Nc2nc3ccc(Cl)cc3n3cnnc23)cc1 -5.11%, CNC(=O)c1ccc(-c2nc(CN3CCc4ccccc43)c(C)o2)cc1 -11.8%, CCOc1ccccc1CNC(=O)C1CCN(c2nnc(C)c3c(C)n(-c4ccc(C)cc4)nc23)CC1 -7.87%, O=C(CC1(O)C(=O)N(CCc2ccccc2)c2ccc(Br)cc21)c1ccccc1 (configuration not stated) -23.7%, Cc1cccc(N2CCN(S(=O)(=O)c3nnc(NC(=O)c4ccc(Cl)cc4)s3)CC2)c1 -1.82%, COc1ccc(OC)c(NC(=O)c2ccc3nc(C(C)C)oc3c2)c1 -10.6%, O=C1CC(c2nnc(Cc3ccc(F)cc3)o2)CN1c1ccccc1 (configuration not stated) -4.82%, Fc1ccccc1-n1ncc2c1ncn1nc(COc3ccc(Cl)cc3)nc21 -11.7%, COc1ccccc1CNC(=O)c1cc(S(=O)(=O)N2CCCCCC2)cn1C -12.6%, Cc1cccc(NC(=O)CSc2cn(CC(=O)N3CCC(C)CC3)c3ccccc23)c1C -8.17%, COc1ccccc1NC(=O)c1sc2nc(C)c(C(=O)Nc3ccc(Cl)cc3)c(-c3ccc(Br)cc3)c2c1N -21.4%, CC(C)(C)C(=O)NC1CC(=O)N(c2ccc3c(c2)OCCO3)C1 (configuration not stated) -1.41%, Cc1ccccc1CN1CCC(CNC(=O)c2cc3ccc4cccnc4c3[nH]2)CC1 -4.6%, CCc1cccc(NC(=O)c2cc(S(=O)(=O)N3CCCCCC3)cn2C)c1 -4.17%, COc1ccccc1N1CCN(C(=O)c2cc3c(s2)-c2ccccc2OC3)CC1 -14.2%, CCN(c1ccccc1)S(=O)(=O)c1ccc(NC(=O)c2cc(=O)c3c(C)cc(C)cc3o2)cc1 2.84%, COc1cccc(-c2cc(C(F)(F)F)n3nc(-c4ccc(C)cc4)cc3n2)c1 -4.2%, CNS(=O)(=O)c1ccc(NC(=O)c2nc3nc(C)cc(C(F)F)n3n2)cc1 -0.615%, O=C1CCc2cc(S(=O)(=O)NC(C(=O)Nc3ccc(F)cc3)c3ccccc3)ccc2N1 (configuration not stated) -15.9%, CCc1ccccc1N1CC(c2nc3ccccc3n2CCCCOc2ccccc2OC)CC1=O (configuration not stated) 8.01%, CC(C)NC(=O)Cc1csc2nc(-c3ccccc3)cn12 -9.11%, Cc1noc(Cn2c(=O)c3cc4c(cc3n(CC(=O)Nc3ccc(C(C)C)cc3)c2=O)OCO4)n1 -24.6%, CCOc1ccc(NS(=O)(=O)c2ccc3[nH]cc(C(=O)N4CCCC4)c(=O)c3c2)cc1 -13.3%, COc1cc2c(cc1OC)C(COc1ccc(F)cc1)N(C(=O)C(C)C)CC2 (configuration not stated) -29.1%, O=c1n(Cc2ccccc2)nc2n1-c1ccccc1OC2 -3.66%, O=c1ccc2ccccc2o1 -17%, CC(C)c1cnc2c(c1SCc1ccc([N+](=O)[O-])cc1)c(=O)n(C)c(=O)n2C -10%, Cc1nc2nc(CNC(=O)c3cccc(F)c3)nn2c(C)c1CCC(=O)Nc1ccc(F)cc1 -9.65%, Fc1ccc(Nc2nc(SCc3ccc(Cl)cc3)nc3ccccc23)cc1 -23.1%, Cc1ccccc1C(=O)NCC(c1ccc(N(C)C)cc1)N1CCCC1 (configuration not stated) -16.4%, COc1ccc(S(=O)(=O)N(Cc2nc(-c3ccccc3)no2)C2CCCCC2)cc1 -12.3%, Cc1cc(O)c2ccccc2c1O -12.4%, COc1cc(C2CC(=O)N(c3ccc(C)c(Cl)c3)C3=C2C(=O)OC3)cc(OC)c1OC (configuration not stated) -3.24%, O=C(CCS(=O)(=O)c1ccc(Br)s1)Nc1c(F)cccc1F -8.47%
